Results taken from publication doi:10.1101/2021.07.07.451493 (bioRxiv, 2021).

Target: T1, purified human glypican-4 (GPC-4) protein (human, UniProt O75487 19-529)
T1 sequence (looked up): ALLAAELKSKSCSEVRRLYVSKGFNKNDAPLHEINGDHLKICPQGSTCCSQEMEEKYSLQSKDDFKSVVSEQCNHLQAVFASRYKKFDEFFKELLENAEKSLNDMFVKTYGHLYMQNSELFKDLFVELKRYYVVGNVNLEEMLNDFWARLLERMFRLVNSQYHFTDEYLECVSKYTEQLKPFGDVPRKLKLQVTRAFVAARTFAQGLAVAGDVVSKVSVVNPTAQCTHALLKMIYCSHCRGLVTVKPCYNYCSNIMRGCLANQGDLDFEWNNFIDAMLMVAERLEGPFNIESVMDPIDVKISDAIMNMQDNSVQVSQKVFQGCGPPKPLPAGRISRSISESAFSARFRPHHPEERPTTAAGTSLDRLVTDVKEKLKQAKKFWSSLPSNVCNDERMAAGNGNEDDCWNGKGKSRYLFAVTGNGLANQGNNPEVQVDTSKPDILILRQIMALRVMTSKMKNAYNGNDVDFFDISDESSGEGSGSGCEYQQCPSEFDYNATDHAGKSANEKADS
Assay: native gel or EMSA

binding result: binds
B1: purified human APOE4 protein (natural protein)
chain: not shown
